From PMC4242493
The other results are listed elsewhere or left out. The list includes weakly bound sequences.

These sequences were tested against MaxL homodimer (UniProt P61244) (assay: universal protein-binding microarray (PBM)). Details: PBS-based mixture, 10 nM His-tagged protein dimer, 2% milk, 200 ng/uL BSA, 50 ng/uL salmon testes DNA, 0.02% TX-100; detection with Alexa 488 anti-His …; high values mean tight binding; most listed sequences are background and not binding sites; double strand, one strand shown.
Chain of UniProt P61244 (P61244 whole entry): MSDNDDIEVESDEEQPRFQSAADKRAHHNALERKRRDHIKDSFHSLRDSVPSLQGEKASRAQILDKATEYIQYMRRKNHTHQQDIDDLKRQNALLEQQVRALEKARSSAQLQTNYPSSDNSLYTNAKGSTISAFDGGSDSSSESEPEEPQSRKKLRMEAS

Sequence	binding signal (normalized occupancy)
AAGAAAAC	0.0699
TAGCCATA	0.0814
CCTATCCC	0.0801
AGCGACGC	0.0691
GAAACCGC	0.0706
CGTAAGTC	0.0757
CCAGGAAG	0.0703
TTAAACAA	0.0715
CAGCTGAA	0.0749
TAAGTACA	0.0831
CTCAACTA	0.0747
CAAATATG	0.0846
AAATTATT	0.0751
ACATTATG	0.0869
AGTTTCCG	0.0674
AGCTGCCC	0.0668
CATATATC	0.0836
AACGATCG	0.072
CTAGCGCA	0.07
AGAGGTTA	0.075
AAACTACT	0.0727
AGCGTGAT	0.1
CGTGGGCC	0.0805
GATGGAAC	0.0776
CAAGCTTA	0.0669

Sequence	binding signal (normalized occupancy)
ACCGCAAT	0.0686
GTTGCGAA	0.0704
CGTTATAC	0.0776
CGTCTGCA	0.0724
CCCCAGTA	0.0805
TGGGCACA	0.079
AGCGTCTC	0.0715
AGGCGACG	0.0683
AGGCTAGA	0.0688
CTCCGCAG	0.0709
ACGACAAG	0.079
TAGCGGGA	0.0705
ACATTCTC	0.0767
ACCCCTAT	0.0844
AAAACAGG	0.0733
CAAGTGCA	0.0781
ACACCCAT	0.0898
GTCAGGAC	0.0691
AGCCTATG	0.0742
CTCGCGGA	0.0788
ATGAGACG	0.0745
CATTATGC	0.0836
TCTACAGA	0.0715
AACCTCGG	0.0682
CATTCATA	0.0838

Sequence	binding signal (normalized occupancy)
ATAGAACA	0.0789
ATCCACAC	0.083
CTGGACTC	0.0689
AATAGAGT	0.0745
AAGGATTC	0.077
GGTACAGA	0.0715
AATGTCTC	0.0821
AGTCCGGC	0.0693
ACGACAGT	0.0734
ATACGCTA	0.0776
GAATCTTA	0.0711
TAGGACAA	0.0754
ATCGGCGA	0.0686
CATTCTGG	0.077
AAGCTAAT	0.0749
CGAAAAAC	0.0696
ACCACAAT	0.0804
GACATCCA	0.0748
CATCCAAG	0.075
ATGAAACC	0.0781
AAGCGAGG	0.0741
TGGTAAAA	0.0733
ACTTATTG	0.0735
AGCCTCGG	0.07
ACACCTCC	0.0781

Sequence	binding signal (normalized occupancy)
AGCGCATC	0.0737
GTTGTGCA	0.0754
GGCGTTAC	0.0702
AAGAATCC	0.0704
GGGGTATA	0.0888
CATGCTGC	0.122
CCGTGGGA	0.0775
AGAACGAC	0.0774
ATGCCTGG	0.0781
AGAAGCTA	0.0715
AGATATGA	0.0807
GTGACAAA	0.0805
CCACAATA	0.0775
AAAGCAAC	0.0699
TACACGAA	0.0774
CCAAAAGC	0.0644
CTCGGTAC	0.0736
ACGGCAGA	0.0744
ATCAAGAA	0.0807
ATCACGAG	0.0932
ACGATTCG	0.0779
CTGGTTCA	0.0716
GTTTTTTA	0.07
CGGTAGTC	0.0674
AAAATCTT	0.0679

Sequence	binding signal (normalized occupancy)
GGAGCCTA	0.069
CTGAGAAA	0.0731
AGGGCCGC	0.0729
AGGCTTCA	0.069
ATGTACAC	0.0906
CTCCACTA	0.0729
ATAAGGAA	0.076
CGGACTTC	0.071
CCAGTAAC	0.0745
AGTGGCCA	0.0734
AAATACAG	0.0766
ACCAAATC	0.0779
ACTGCAGA	0.0732
AATCCTCT	0.0734
CTGTGTTC	0.0742
CGCCTACG	0.0728
CAGCATCA	0.0768
CAACTCCC	0.0763
ATAATTAC	0.0794
AAATGATG	0.0795
CAGCCACG	0.0806
GCTGCAAA	0.0687
ACGAGAAA	0.0699
AGCATTGA	0.0777
AGTTGTGA	0.0763

Sequence	binding signal (normalized occupancy)
ACAGCGCC	0.0698
CAGGCCCC	0.074
AAAAGACT	0.072
CTGACAAG	0.075
GGGCAACC	0.0687
GCGGGGCC	0.0693
GCTGGGCC	0.0659
ACACACAC	0.0915
TACCGCAA	0.0787
CGTACATC	0.0836
ATCGAGGC	0.0755
ACTAGGCC	0.0722
ACACTGCT	0.0793
ATCCCAAT	0.0808
CGGCTCTC	0.0682
GAGGAGGC	0.0782
ACTCTTCG	0.0747
CGATCATA	0.0845
ACCAGAAC	0.0763
GCCGACAA	0.07
AAGACTCA	0.074
AGGTGATA	0.0839
CCAGTTAC	0.0773
TATAAGGA	0.0807
TTGGGAAA	0.0769

Sequence	binding signal (normalized occupancy)
CAATTACC	0.0784
GTGTATGA	0.0901
CGTGGTAG	0.089
CTGGGGCA	0.0708
AACCAGGA	0.0727
ATAGGAAG	0.0755
ATGCCCGG	0.0744
GCGTGGCA	0.121
ATGTCAAA	0.0788
CGTTCTAG	0.0783
AGGACCGC	0.0725
CCGAACGC	0.0695
AGCGACGA	0.0714
ACACCAGT	0.0764
CAGTTGGG	0.0768
GTTTGTGA	0.0718
CAGTGCCC	0.0678
CGTTCGGC	0.0711
ACGCTGCC	0.0776
AACGACCA	0.0725
GACTCATA	0.0763
AGTATAGG	0.0786
